Data: PMC5019376
Positions count from the first letter of the chain named. In names and notes the source's numbering stands. These are yes or no findings as the source states them, for the method shown. For part of these data: Binding seen in cells or lysates may run through a third protein. Some binding calls cover weakened binding; strength is not graded here. Sequences can lack the tags named with a protein.

T1: TIR1 (wild type, epitope-tagged, expressed in Nicotiana) (Arabidopsis) (UniProt Q570C0)
T1 sequence: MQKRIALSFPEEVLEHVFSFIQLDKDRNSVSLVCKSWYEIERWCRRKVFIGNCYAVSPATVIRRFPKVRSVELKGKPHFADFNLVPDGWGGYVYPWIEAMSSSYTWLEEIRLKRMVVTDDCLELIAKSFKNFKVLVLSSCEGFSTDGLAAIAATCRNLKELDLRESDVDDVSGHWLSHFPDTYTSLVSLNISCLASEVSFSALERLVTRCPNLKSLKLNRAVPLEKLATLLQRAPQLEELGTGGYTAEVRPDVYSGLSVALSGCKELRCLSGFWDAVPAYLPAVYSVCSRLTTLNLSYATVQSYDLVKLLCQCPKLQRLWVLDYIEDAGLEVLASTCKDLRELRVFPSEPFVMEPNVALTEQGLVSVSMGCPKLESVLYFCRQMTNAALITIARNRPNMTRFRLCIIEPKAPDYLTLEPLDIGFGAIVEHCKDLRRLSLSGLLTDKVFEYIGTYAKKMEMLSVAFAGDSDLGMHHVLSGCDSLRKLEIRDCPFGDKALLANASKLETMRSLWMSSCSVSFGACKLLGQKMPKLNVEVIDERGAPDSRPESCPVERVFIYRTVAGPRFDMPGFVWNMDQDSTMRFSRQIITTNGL

T2: TIR1 (wild type, BiFC fusion) (Arabidopsis) (UniProt Q570C0)
T2 sequence: T1 sequence

B1: TIR1 (wild type, epitope-tagged, expressed in Nicotiana) (protein, UniProt Q570C0 1-594)
chain: T1 sequence
B2: TIR1 fusion proteins expressed from the native promoter in Arabidopsis (TIR1-GUS and TIR1-VENUS) (protein, UniProt Q570C0 1-594)
chain: T1 sequence
B3: COI1, BiFC fusion (protein, UniProt O04197 1-592)
chain: MEDPDIKRCKLSCVATVDDVIEQVMTYITDPKDRDSASLVCRRWFKIDSETREHVTMALCYTATPDRLSRRFPNLRSLKLKGKPRAAMFNLIPENWGGYVTPWVTEISNNLRQLKSVHFRRMIVSDLDLDRLAKARADDLETLKLDKCSGFTTDGLLSIVTHCRKIKTLLMEESSFSEKDGKWLHELAQHNTSLEVLNFYMTEFAKISPKDLETIARNCRSLVSVKVGDFEILELVGFFKAAANLEEFCGGSLNEDIGMPEKYMNLVFPRKLCRLGLSYMGPNEMPILFPFAAQIRKLDLLYALLETEDHCTLIQKCPNLEVLETRNVIGDRGLEVLAQYCKQLKRLRIERGADEQGMEDEEGLVSQRGLIALAQGCQELEYMAVYVSDITNESLESIGTYLKNLCDFRLVLLDREERITDLPLDNGVRSLLIGCKKLRRFAFYLRQGGLTDLGLSYIGQYSPNVRWMLLGYVGESDEGLMEFSRGCPNLQKLEMRGCCFSERAIAAAVTKLPSLRYLWVQGYRASMTGQDLMQMARPYWNIELIPSRRVPEVNQQGEIREMEHPAHILAYYSLAGQRTDCPTTVRVLKEPI
B4: IAA3, BiFC fusion (protein, UniProt Q38822 1-189)
chain: MDEFVNLKETELRLGLPGTDNVCEAKERVSCCNNNNKRVLSTDTEKEIESSSRKTETSPPRKAQIVGWPPVRSYRKNNIQSKKNESEHEGQGIYVKVSMDGAPYLRKIDLSCYKGYSELLKALEVMFKFSVGEYFERDGYKGSDFVPTYEDKDGDWMLIGDVPWEMFICTCKRLRIMKGSEAKGLGCGV
B5: L439A-TIR1 (BiFC fusion) (protein, UniProt Q570C0 1-594)
chain: T1 sequence with L439A
B6: R403A-TIR1 (BiFC fusion) (protein, UniProt Q570C0 1-594)
chain: T1 sequence with R403A
B7: S438A/L439A-TIR1 (BiFC fusion) (protein, UniProt Q570C0 1-594)
chain: T1 sequence with S438A, L439A
B8: K113A/R114A TIR1 (BiFC fusion) (protein, UniProt Q570C0 1-594)
chain: T1 sequence with K113A, R114A
B9: V33A/K35A-TIR1 (BiFC fusion) (protein, UniProt Q570C0 1-594)
chain: T1 sequence with V33A, K35A
B10: D146A TIR1 (BiFC fusion) (protein, UniProt Q570C0 1-594)
chain: T1 sequence with D146A
B11: L148A TIR1 (BiFC fusion) (protein, UniProt Q570C0 1-594)
chain: T1 sequence with L148A
B12: D170E TIR1 (BiFC fusion) (protein, UniProt Q570C0 1-594)
chain: T1 sequence with D170E
B13: S462E/A464E-TIR1 (BiFC fusion) (protein, UniProt Q570C0 1-594)
chain: T1 sequence with S462E, A464E
B14: C140S-TIR1 (BiFC fusion) (protein, UniProt Q570C0 1-594)
chain: T1 sequence with C140S
B15: V33E-TIR1 (BiFC fusion) (protein, UniProt Q570C0 1-594)
chain: T1 sequence with V33E
B16: F143A-TIR1 (BiFC fusion) (protein, UniProt Q570C0 1-594)
chain: T1 sequence with F143A
B17: V117A TIR1 (BiFC fusion) (protein, UniProt Q570C0 1-594)
chain: T1 sequence with V117A
B18: G142A TIR1 (BiFC fusion) (protein, UniProt Q570C0 1-594)
chain: T1 sequence with G142A
B19: I151A TIR1 (BiFC fusion) (protein, UniProt Q570C0 1-594)
chain: T1 sequence with I151A
B20: G147A TIR1 (BiFC fusion) (protein, UniProt Q570C0 1-594)
chain: T1 sequence with G147A
B21: D170A-TIR1 (BiFC fusion) (protein, UniProt Q570C0 1-594)
chain: T1 sequence with D170A
B22: COI1, yeast two-hybrid fusion (protein, UniProt O04197 1-592)
chain: B3 chain
B23: TIR1 (wild type, yeast two-hybrid fusion) (protein, UniProt Q570C0 1-594)
chain: T1 sequence
B24: C140S-tir1 (epitope-tagged, expressed in Nicotiana for the co-IP) (protein, UniProt Q570C0 1-594)
chain: T1 sequence with C140S

Each binder was assayed against T1, TIR1 (wild type, epitope-tagged, expressed in Nicotiana) (Arabidopsis) (assay: co-IP; HA:TIR1 and Myc:TIR1 co-injected in Nicotiana leaves; extracts precipitated with anti-Myc antibody, blots with anti-Myc and anti-HA).

Binder	binding
B1	binds

What follows are binders tested against TIR1 fusion proteins expressed from the native promoter in Arabidopsis (TIR1-GUS and TIR1-VENUS) (Arabidopsis) (UniProt Q570C0) (assay: co-IP; extracts of double transgenic pTIR1:TIR1-GUS and pTIR1:gTIR1-VENUS Arabidopsis plants; precipitated with anti-GUS antibody, blots with anti-GUS and anti-GFP).

Binder	binding
B2	binds

These binders were tested against COI1, BiFC fusion (Arabidopsis) (UniProt O04197) (assay: split reporter; BiFC after transient expression in Nicotiana benthamiana leaves, confocal imaging; some TIR1-TIR1 samples with co-expressed Myc:ASK1 and 100 uM CHX).

Binder	binding
B3	binds

These binders were tested against IAA3, BiFC fusion (Arabidopsis) (UniProt Q38822) in the same assay as above.

Binder	binding
B4	binds

What follows are binders tested against T2, TIR1 (wild type, BiFC fusion) (Arabidopsis) in the same assay as above.

Binder	binding
B5	binds
B6	binds
B7	binds
B8	binds
B9	binds
B10	binds
B11	binds
B12	binds
B13	binds
B14	no binding
B15	no binding
B16	no binding
B17	no binding
B18	no binding
B19	no binding
B20	no binding
B21	no binding

These binders were tested against COI1, yeast two-hybrid fusion (Arabidopsis) (UniProt O04197) (assay: two-hybrid; yeast MaV203, ProQuest vectors pDEST32 (DB) and pDEST22 (AD); growth without histidine with 3-AT; TIR1-TIR1 also with co-expressed Aux/IAA3 and 25 uM indole-3-acetic acid).

Binder	binding
B22	binds

The binders below were run against TIR1 (wild type, yeast two-hybrid fusion) (Arabidopsis) (UniProt Q570C0) in the same assay as above.

Binder	binding
B23	binds

What follows are binders tested against T1, TIR1 (wild type, epitope-tagged, expressed in Nicotiana) (Arabidopsis) (assay: co-IP; HA tagged and Flag tagged TIR1 (wild type and mutant) co-expressed in Nicotiana leaves; extraction buffer 50 mM Tris pH 7.5, 150 mM NaCl, 100 mM MgCl2, 10% glycerol, 0.1% Nonidet P-40, 10 uM MG132; precipitated with anti-HA affinity gel, blots with anti-FLAG M2 and anti-HA).

Binder	binding
B24	no binding
